Experimental findings from PubChem BioAssay AID488969 (Vanderbilt High Throughput Screening Facility, 2010) are described below.

In all, about 110,000 compounds were measured (“z-score”: median about -0.1, highest 2% from about 2 on). This is one part of the list.

This assay addresses Metabotropic glutamate receptor 8 (Rattus norvegicus) (UniProt P70579). Description: mGluR8 Gi/Go-coupled signaling modulation – cell-based, rat, thallium flux, HTS, primary screen (AID 488969). The note with it: HEK293 rat mGluR8, GIRK (G protein-gated inwardly rectifying potassium channel) thallium flux, FluoZin2; at 10 µM; stronger effect = higher value; submaximal glutamate (EC20) added with thallium.
Sequence of UniProt P70579 (P70579 whole entry, looked up): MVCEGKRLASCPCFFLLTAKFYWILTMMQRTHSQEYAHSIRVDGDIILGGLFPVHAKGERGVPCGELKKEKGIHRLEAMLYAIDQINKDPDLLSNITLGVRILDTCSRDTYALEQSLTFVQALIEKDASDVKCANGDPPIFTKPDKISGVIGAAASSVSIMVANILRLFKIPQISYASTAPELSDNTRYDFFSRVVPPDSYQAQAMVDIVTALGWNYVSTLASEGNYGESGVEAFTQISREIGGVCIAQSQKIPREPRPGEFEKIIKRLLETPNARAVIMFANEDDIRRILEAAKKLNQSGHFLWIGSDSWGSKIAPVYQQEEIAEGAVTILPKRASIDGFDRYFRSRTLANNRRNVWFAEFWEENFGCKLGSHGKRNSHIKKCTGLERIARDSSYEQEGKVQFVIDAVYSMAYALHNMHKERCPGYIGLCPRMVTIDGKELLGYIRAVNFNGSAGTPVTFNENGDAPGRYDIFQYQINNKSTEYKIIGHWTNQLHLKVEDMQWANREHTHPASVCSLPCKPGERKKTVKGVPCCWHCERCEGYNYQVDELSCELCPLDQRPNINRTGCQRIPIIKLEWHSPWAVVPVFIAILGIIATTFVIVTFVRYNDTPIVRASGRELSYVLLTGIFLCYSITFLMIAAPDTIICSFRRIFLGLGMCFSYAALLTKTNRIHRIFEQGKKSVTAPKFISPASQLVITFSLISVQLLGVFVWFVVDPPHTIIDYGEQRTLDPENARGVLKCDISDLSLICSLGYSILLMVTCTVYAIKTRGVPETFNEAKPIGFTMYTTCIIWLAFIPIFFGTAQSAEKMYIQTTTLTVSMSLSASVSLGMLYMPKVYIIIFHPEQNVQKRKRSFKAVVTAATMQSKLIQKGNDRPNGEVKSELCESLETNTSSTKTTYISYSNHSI
As to `COc1ccccc1CC(=O)Nc1ccccc1C(=O)O`, the z-score is -0.257.
Then `FC(F)(F)c1nnc2ccc(N3CCN(c4ccccc4)CC3)nn12`, with -0.0115; and `Cc1noc(C(=O)NCc2ccc(F)cc2)c1Cl`, with -0.2; and `COc1ccc(C2CC(c3cccs3)=NN2c2ccc(C=O)cc2)cc1` (centres undefined), with 0.0183.
The molecule `CCOC(=O)N1CCN(C(=O)CNS(=O)(=O)c2cccs2)CC1` came in with a z-score of 0.68.
In turn, `CC(C)C[C@H](NS(=O)(=O)c1ccc(Br)cc1)C(=O)O` had a z-score of 0.131.
`CCSc1nnc(NC(=O)CSc2nc3c(c(=O)n2CC)SC(C)C3)s1` (centres undefined) displayed a z-score of -0.0369.
For the molecule `Cc1cc2nc(-c3ccc(SCC(=O)N4CCN(C(=O)c5ccco5)CC4)nc3)[nH]c2cc1C`, the z-score turned out to be 0.00238.
Take `CCN(CC)S(=O)(=O)c1ccc(-c2nnc(SCC(=O)N3CCOCC3)o2)cc1`: the z-score was -0.522.
As for `CCC(=O)N=c1sc2c(OC)ccc(OC)c2n1C`, the z-score was -0.467.
As to `O=C(O)CSc1c[nH]c2ccccc12`, the z-score is -0.4.
Consider `CCCCC(=O)Nc1cccc(NC(=O)c2ccc3c(c2)OCO3)c1`, for which the z-score was -0.0155.
`CC(C)C(c1nnnn1Cc1ccc(F)cc1)N1CCN(Cc2ccc3c(c2)OCO3)CC1` (centres undefined) showed a z-score of 0.13.
The molecule `COC(=O)C1=C(C)OC(N)=C(C#N)C1c1ccco1` (centres undefined) came in with a z-score of -0.186.
As to `O=C(COc1ccccc1N1C(=O)c2ccccc2C1=O)c1ccc(Cl)cc1`, the z-score is -0.197.
For `COc1ccc(NC(=O)/C(Cl)=C(/Cl)S(=O)(=O)Cc2ccccc2)cn1`, the z-score was -0.481.
For the molecule `CCn1nc(NC(=O)c2cccnc2)c2cc3ccccc3nc21`, the z-score was -0.87.
In the case of `CC1CCc2c(sc3ncnc(N4CCN(S(=O)(=O)c5cccc6nonc56)CC4)c23)C1` (centres undefined), the z-score is 0.835.
In turn, `O=C(Nc1cc(C(F)(F)F)ccc1N1CCCC1)c1cccnc1` showed a z-score of 0.0707.
Take `CC(NC(=O)/C(=C\c1cccc([N+](=O)[O-])c1)NC(=O)c1ccco1)C(=O)O` (centres undefined): the z-score came out at 0.148.
As for `COc1cc(C)ccc1OCCOCCOc1ccc([N+](=O)[O-])cc1`, the z-score was -0.271.
As to `Fc1cc2nc(-c3ccncc3)[nH]c2cc1F`, the z-score was 0.99.
`Cc1ccc(N2C(=O)NC(NC(=O)C(C)(C)C)(C(F)(F)F)C2=O)cc1` (centres undefined) yielded a z-score of -0.11.
Molecule `C/C(=N\Nc1cc(-c2ccccc2)nc(-c2ccccc2)n1)c1ccc(O)c(C)c1` yielded a z-score of -0.201.
On to `Cn1cnnc1SCC(=O)Nc1sc2c(c1C#N)CCCCC2`, for which the z-score stood at 0.0796.
As to `Cc1ccc2c(c1)[nH]c1c(=O)n(CCCN3CCOCC3)cnc12`, the z-score amounted to 0.468.
`c1nnn(C23CC4CC(CC(C4)C2)C3)n1` gave a z-score of 1.14.
For the molecule `O=C(NCc1ccccc1)c1ccc(OCC2CCCO2)cc1` (centres undefined), the z-score worked out at 0.23.
In turn, `CCOc1ccccc1N(C)C(=O)C1CCN(S(=O)(=O)c2cccc3nonc23)CC1` came in with a z-score of 0.778.
In turn, `C/C(Cn1nc([N+](=O)[O-])cc1C)=N\NC(=O)COc1c(Cl)cc(Cl)cc1Cl` came in with a z-score of 0.0152.
In turn, `O=C(CCN1C(=O)C2C3C=CC(C3)C2C1=O)NCCc1ccccc1` (centres undefined) yielded a z-score of 0.331.
Then `O=C(O)c1cnn(-c2ccccc2)c1-c1ccccc1`, with -0.548; and `COCC(=O)NC1CC2CCCC(C1)N2Cc1ccccc1` (centres undefined), with -1.46; and `CCN(CC)c1ccc(NC(=O)COC(=O)C23CCC(=O)N2c2ccccc2S3)cc1` (centres undefined), with -0.33.
The molecule `COc1ccc(C(O)C(CC(=O)NCCCOC(C)C)C(=O)NCCCOC(C)C)cc1OC` (centres undefined) had a z-score of -0.266.
The molecule `Cc1nn(C(CC(=O)O)C(=O)O)c(C)c1Br` (centres undefined) displayed a z-score of -0.194.
For the molecule `CN(Cc1ccccc1)C(=O)COC(=O)c1ccc(Cl)c(N)c1`, the z-score is -0.11.
In the case of `Cc1ccc(NC(=O)CN2C(=O)NC(C)(c3ccc(Cl)cc3)C2=O)cc1S(=O)(=O)N1CCOCC1` (centres undefined), the z-score was -0.0719.
For `CCn1c2ccccc2c2cc(NC(=O)CSc3nnc(-c4cccc(F)c4)o3)ccc21`, the z-score is 0.298.
Then `COC(=O)c1c(NC(=O)CN2CCN(c3ccccc3Cl)CC2)sc(C)c1C`, with -0.0842.
Then `NC(=O)CSc1nnc(-c2ccc(S(=O)(=O)N3CCOCC3)cc2)n1Cc1ccccc1`, with -0.888.
In the case of `Fc1ccccc1N1CCN(C(c2cccs2)c2nnnn2CCc2ccccc2)CC1` (centres undefined), the z-score came out at 0.131.
`CN(C)c1ccc(-c2n(C)c3ccccc3[n+]2C)cc1` returned a z-score of 0.0484.
Consider `Cc1ccc(NC(=O)CSc2nnc(CNC(=O)C34CC5CC(CC(C5)C3)C4)n2-c2ccc(F)cc2)cc1`, for which the z-score was -0.0179.
Turning to `C=C(C)Cn1c(CCCNC(=O)C(C)(C)C)nc2ccccc21`, the z-score amounted to 0.285.
In the case of `O=C(Nc1ccc(OC(F)(F)F)cc1)c1n[nH]c(Cn2cncn2)n1`, the z-score was -0.0524.
As for `CC(C)(C)NC(=O)NC(=O)COC(=O)c1cc(=O)[nH]c2ccccc12`, the z-score was -0.373.
Molecule `Cc1nnc(-n2ncc(C#N)c2N)c2nn(-c3ccccc3F)c(C)c12` displayed a z-score of 0.226.
`CCC(=O)c1ccc(OCC(O)CN2C(=O)NC(C)(C)C2=O)cc1` (centres undefined) had a z-score of 0.166.
The molecule `Cc1cccc(OCC(=O)Nc2ccccc2C(=O)N2CCOCC2)c1` gave a z-score of -0.0499.
As to `O=[N+]([O-])c1ccc(Sc2n[nH]c(-c3ccc(Cl)cc3Cl)n2)nc1`, the z-score is 0.621.
`CCOC(=O)c1cnc2c(C)c(C)ccc2c1Nc1ccc(S(=O)(=O)Nc2ncccn2)cc1` had a z-score of -0.177.
As to `CC(=O)N1CCc2cc(S(=O)(=O)CCC(=O)Nc3cccc(F)c3)ccc21`, the z-score was found to be 0.0808.
In turn, `O=C(COC(=O)c1ccc(Br)o1)NCc1ccco1` came in with a z-score of 0.0551.
For the molecule `O=C(COC(=O)COc1ccccc1[N+](=O)[O-])Nc1ccc(S(=O)(=O)N2CCCCC2)cc1`, the z-score is -0.317.
`CC(C)Oc1ccc(C(=O)NCc2ccco2)cc1`: the z-score was -0.396.
`Cc1nn(-c2ccccc2)c(C)c1/C=C/C(=O)OC(C)C(=O)Nc1ncc(Cl)cc1Cl` (centres undefined) displayed a z-score of -0.134.
As for `CCC(C)c1ccc(NC(=O)COC(=O)C2=COCCO2)cc1` (centres undefined), the z-score turned out to be 0.095.
The molecule `C=CCNS(=O)(=O)c1cccc(C(C)=O)c1` showed a z-score of -0.161.
`Cc1cc(Nc2ccc(F)cc2Cl)n2nc(C)nc2n1` had a z-score of 0.452.
As for `COc1ccc(C(C)NC(=O)c2cccc([N+](=O)[O-])c2)cc1OC` (centres undefined), the z-score was found to be 0.0831.
`NC(=O)c1ccsc1NC(=O)COC(=O)C1CCCN1C(=O)c1cccs1` (centres undefined): the z-score is -0.196.
As to `CCC(C)C(=O)Nc1cc([N+](=O)[O-])ccc1Cl` (centres undefined), the z-score is -0.229.
Regarding `COc1ccc(NC(=O)c2cc3c(Cl)nc4ccccc4c3s2)c(OC)c1`, the z-score is -0.0917.
`O=C(NCc1ccco1)c1ccc(Cn2c(=O)c3ccccc3n(Cc3cccc(Cl)c3)c2=O)cc1` displayed a z-score of -0.159.
In turn, `CCCc1nc2c(nnn2Cc2ccccc2)c(=O)[nH]1` yielded a z-score of -0.0649.
`O=C(CSc1ncccn1)N1CCN(Cc2ccccc2)CC1`: the z-score was 0.285.
Regarding `CCn1c(C)c(CCC(=O)O)c(=O)n2nc(-c3ccccc3OC)cc12`, the z-score came out at 0.435.
On to `CC1CCN(c2nc3ccccc3nc2N2CCC(C)CC2)CC1`, for which the z-score is -0.169.
As to `Cc1ccccc1NC(=S)NNc1ncc(C(F)(F)F)cc1Cl`, the z-score was 0.522.
On to `COc1ccccc1N1CCN(C(=O)CN(c2ccccc2OC)S(=O)(=O)c2ccccc2)CC1`, for which the z-score was -0.359.
In turn, `Cc1noc(C)c1S(=O)(=O)N1CCC(C(=O)N2CCC(C)CC2)CC1` showed a z-score of -0.251.
`CCCCc1ccc(/C=C2\C(=O)c3ccccc3C(O)=C2C(=O)OCC)cc1` came in with a z-score of 0.193.
Then `Cc1nnc(SCC(=O)c2cc(C)n(-c3ccc4c(c3)OCO4)c2C)s1`, with 0.0461.
As for `CCN(CC(=O)Nc1ccccc1Br)Cc1nc2ccccc2c(=O)[nH]1`, the z-score is -0.227.
`COC(=O)CSc1snnc1-c1ccc(Cl)c(Cl)c1` had a z-score of 0.058.
`Nc1nnc(SCC(=O)NN2C(=O)NC3(CCCCC3)C2=O)s1` gave a z-score of -0.0682.
`CCOc1ccc2c(c1)c(N=NC(=N)N)c(O)n2C` showed a z-score of -0.224.
`CC1CCN(S(=O)(=O)c2ccc(Cl)cc2)CC1` came in with a z-score of 0.268.
`COc1ccc(C(=O)Nc2nnc(-c3ccco3)s2)cc1` had a z-score of -0.0428.
The molecule `Cc1ccc(-n2c(Cn3nc(C(F)(F)F)cc3C)n[nH]c2=S)cc1` came in with a z-score of 0.00739.
On to `O=C(NCc1ccco1)c1cc2sccc2n1Cc1ccc(F)cc1`, for which the z-score is -0.659.
In turn, `CNCCCOc1cccc(OC(C)C)c1` yielded a z-score of -0.272.
Then `O=C(COC(=O)/C=C/c1ccccc1Cl)NC(=O)Cc1ccccc1`, with -0.122; and `COc1ccc(CCNC(=O)c2nnn(-c3ccc4c(c3)OCCO4)c2N)cc1OC`, with -0.202.
Molecule `CCCCC(NC(=O)c1ccccc1)C(=O)OCC(=O)N1c2ccccc2Sc2ccccc21` (centres undefined) displayed a z-score of -0.405.
On to `CCc1ccccc1NC(=O)CN(C)C(=O)CSc1nn(-c2ccc(F)cc2)c(=S)s1`, for which the z-score stood at 0.81.
The molecule `O=[N+]([O-])c1cccc(N/N=C/c2cccc3ccccc23)c1` had a z-score of 0.768.
Then `COc1ccc(-c2nc(C#N)c(NCc3ccccc3Cl)o2)cc1`, with 0.523.
As to `Cc1ccc(-c2nc(CSc3nc4ccccc4c(=O)n3C)cs2)cc1`, the z-score is -0.0673.
Then `Cc1ccc(/C=C2\Oc3cc(OC(=O)N4CCOCC4)ccc3C2=O)cc1`, with -0.103; and `CC(=O)N1N=C(c2ccc(C)o2)CC1c1ccc(F)cc1` (centres undefined), with -0.332.
As for `CC(C)(C)N1C(=O)c2ccccc2NC(=O)N1Cc1ccccc1`, the z-score came to 0.185.
Then `CC(C)N(Cc1nnc(-c2ccccc2Cl)o1)C(=O)c1cccc(C#N)c1`, with 0.0421; and `O=C(CS(=O)(=O)c1ccc2ccccc2c1)Nc1ccccc1Cl`, with -0.351; and `c1ccc(Cn2nnc3c(N4CCCCCC4)ncnc32)cc1`, with -2.1.
In turn, `c1cc(C2OCCN2CC2COC3(CCCC3)O2)ccn1` (centres undefined) returned a z-score of 0.32.
`Cc1sc2c(c1C)c(=O)n(-c1ccccc1)c1nnc(C)n21` yielded a z-score of -1.09.
Consider `O=C(O)c1cc2c(ccc3ccccc32)oc1=O`, for which the z-score was -0.496.
`CC1=C(C)CS(=O)N(c2ccc(S(N)(=O)=O)cc2)C1` (centres undefined) had a z-score of -0.403.
`CCOC(=O)c1c(NC=O)sc2c1CCC2` returned a z-score of -0.85.
Turning to `Cc1ccc(C2CCN(C(=O)Nc3ccccc3)C2)cc1` (centres undefined), the z-score was -0.224.
On to `Cc1c(CCO)c(=O)n(C)n1C(=O)c1ccc(F)cc1`, for which the z-score is 0.0927.
As to `N#C/C(=C\c1cn(CCOc2ccccc2)c2ccccc12)C(=O)NCC1CCCO1` (centres undefined), the z-score was -0.29.
In the case of `Cc1cccc(-c2nc(NCCCN3CCOCC3)c3ccccc3n2)c1`, the z-score is -0.137.
`COC(=O)c1cn(CCOc2ccccc2OC)c2ccccc12` registered a z-score of -0.227.
Turning to `Cc1ncc(C[n+]2csc(CCOC(=O)CC3C4CC5CC(C4)CC3C5)c2C)c(N)n1` (centres undefined), the z-score was determined as 0.433.
Take `COc1cccc2cc(C(=O)N3CCN(C45CC6CC(CC(C6)C4)C5)CC3)c(=O)oc12`: the z-score came out at 0.00721.
In turn, `O=C(CCN1CCN(CC(=O)Nc2ccccc2F)CC1)Nc1ccccc1F` came in with a z-score of -0.938.
